Data published in PubChem BioAssay AID624296 (National Center for Advancing Translational Sciences (NCATS), 2012).
Out of some 350,000 compounds screened, about 9,900 (2.8%) were called active. Inconclusive results, whose numbers are uncertain, are shown with a selection of clear calls. The call rests on the fitted dose curve; in most records, active means well fitted activation curve with a large enough effect; inconclusive means small, poorly fitted or top-dose-only effect; inactive means no such curve, though single readings can be large or run the other way. No potency is given beside an inconclusive call; the fits are too rough.

Assay: A quantitative high throughput screen for small molecules that induce DNA re-replication in MCF 10a normal breast cells. Further: nearly all actives have a fitted effect of over 50% in size. On activity, positive = re-replication: % of control where 0% means no effect.
Conditions: MCF 10A DNA re-replication, Hoechst nuclear intensity, 48 h; activity, positive = re-replication: at 46.1 µM (top of the series)
Potency means the concentration at half of the fitted maximal effect; tags describe the fitted curve by direction and shape.

Compound | activity, positive = re-replication | Potency
COc1cc(OC)cc(C(=O)NCC2CCCN(Cc3ccc(SC)cc3)C2)c1 (centres undefined) | inactive: 3.43% | 
COc1cc2c(cc1OC)[C@@H](NC(=O)C(C)C)[C@H](O)C2 |  | inconclusive [activator, full curve, poor fit]
CCCN1C(=O)/C(=c2\sc3nc(=O)c(Cc4ccc(C)cc4)nn3c2=O)c2ccccc21 | inactive: -9.46% | 
Cc1ccc2c(c1)c1ncnc(N3CCc4ccccc4C3)c1n2C |  | inconclusive [activator, single point]
Cc1ccccc1C(=O)NC(C(=O)Nc1nc2c(s1)CCCC2)C(C)C (centres undefined) |  | inconclusive [activator, partial curve, poor fit]
CNc1nc(Nc2ccc(C(C)=O)cc2)nc(OC(C(F)(F)F)C(F)(F)F)n1 |  | inconclusive [activator, partial curve, poor fit]
COc1ccc(NC(=O)c2cc(Br)ccc2Cl)c([N+](=O)[O-])c1 |  | inconclusive [activator, partial curve, poor fit]
O=c1c2ccccc2nc(SCc2nnc(-c3ccccc3Br)o2)n1Cc1ccco1 |  | inconclusive [activator, single point]
O=C(Nc1cccc(C(=O)N2CCCC2)c1)C1CC1 |  | inconclusive [activator, full curve, poor fit]
O=C1c2cccc3c([N+](=O)[O-])ccc(c23)C(=O)N1c1nccs1 |  | active: 7.31 µM
CC(=O)n1cc([C@H]2C=C(C(=O)N3CCN(Cc4ccccc4)CC3)O[C@@H](OCc3ccc(CO)cc3)C2)c2ccccc21 |  | inconclusive [activator, single point]
COc1cccc(C(=O)NCC(c2ccc3c(c2)OCO3)N2CCN(c3ccc(F)cc3)CC2)c1 (centres undefined) |  | inconclusive [activator, single point]
CCOC(=O)c1cnc(Nc2ccc(OCC)cc2)nc1C |  | inconclusive [activator, single point]
O=C(O)COc1cccc(/C=C2/SC(=S)N(Cc3ccccc3)C2=O)c1 |  | inconclusive [activator, single point]
CCC(=O)N/C(=N/c1nc(C)cc(C)n1)Nc1ccc(OC)cc1 |  | inconclusive [activator, single point]
O=C(CS(=O)(=O)c1cn(CC(=O)N2CCOCC2)c2ccccc12)NCc1ccc(F)cc1 | inactive: 0.434% | 
CCn1cc(/C=N/NC(=O)COc2cccc3cccnc23)c2ccccc21 |  | inconclusive [activator, single point]
COc1cc(NC(=O)CSc2ncnc3sc4c(c23)CCCC4)c(C(=O)O)cc1OC |  | inconclusive [activator, partial curve, poor fit]
COc1ccc(C2=Nn3c(nnc3-c3ccccc3OC)SC2)cc1OC1CCOC1 (centres undefined) |  | active: 1.3 µM
Cc1ccc(C(=O)Oc2oc(-c3ccco3)nc2C=Nc2ccc(Cl)cc2)cc1 |  | inconclusive [activator, partial curve, poor fit]
OC(COCc1cccs1)CN1CCN(c2cccc(Cl)c2)CC1 (centres undefined) |  | inconclusive [activator, single point]
CCn1nc(C(=O)Nc2nc3ccc(C)cc3s2)c2ccccc2c1=O |  | active: 23.1 µM
COc1ccc(C(=O)NCCS(=O)(=O)NCc2ccc3c(c2)OCO3)cc1 | inactive: -0.683% | 

Compound | activity, positive = re-replication | Potency
COc1ccc(C(=O)Nc2nnc(S(=O)(=O)Cc3ccccc3)s2)cc1 | inactive: -2.74% | 
Oc1cccc(C2c3[nH]c4ccccc4c3CCN2Cc2cnn(-c3ccccc3)c2)c1 (centres undefined) |  | inconclusive [activator, single point]
Cc1ccc(C(=O)CCC(=O)N2CCN(c3ccccc3O)CC2)cc1 |  | inconclusive [activator, full curve]
CCOC(=O)C1C(c2ccc(O)cc2)NC(=O)NC1(O)C(F)(F)F (centres undefined) |  | inconclusive [activator, partial curve, poor fit]
CS(=O)(=O)c1ccc(C(=O)OCc2nnc(-c3ccccc3)o2)cc1[N+](=O)[O-] |  | inconclusive [activator, single point]
Nc1nc(NCCOCCO)nc(N2CCCCCC2)c1[N+](=O)[O-] | inactive: 0.0485% | 
COc1ccc(Cl)cc1NC(=O)C(C)N1CCN(c2ccccn2)CC1 (centres undefined) | inactive: 15.3% | 
C=CCc1cccc2cc(C(=O)NC3CCCCC3)c(=O)oc12 |  | inconclusive [activator, single point]
S=c1[nH]c2ccccc2o1 | inactive: -3.06% | 
O=C(COC(=O)c1cc2ccccc2cc1O)Nc1ccccc1F |  | inconclusive [activator, partial curve, poor fit]
COc1cc(C(=O)NCCCNc2nc3c(C)cc(C)cc3cc2C#N)cc(OC)c1OC |  | inconclusive [activator, single point]
O=C(Cn1cnc2c(nnn2Cc2ccc(F)cc2)c1=O)N1CCCCC1 | inactive: 4.39% | 
CCN(CC)CCN1C(=O)c2ccccc2NC1c1ccc(C)cc1 (centres undefined) |  | inconclusive [activator, single point]
CCn1nc(C(=O)OCC(=O)c2c[nH]c3ccccc23)c2ccccc2c1=O | inactive: 28.5% | 
O=C(CSc1nnc(-c2ccco2)o1)NC(=O)C1COc2ccccc2O1 (centres undefined) | inactive: -0.0317% | 
Cc1c(C(=O)C(=O)N2c3ccccc3CC2C)c2ccccc2n1C (centres undefined) |  | inconclusive [activator, single point]
CC(C)n1c(CN(C)Cc2ccccc2)nc2c1c(=O)n(C)c(=O)n2C |  | inconclusive [activator, partial curve]
Clc1cccc(Nc2ncnc3c2cnn3-c2ccccc2)c1 |  | inconclusive [activator, single point]
Cc1ccc2cc(CCNS(=O)(=O)c3ccc(F)cc3)c(=O)[nH]c2c1 | inactive: -5.66% | 
COc1cc(-c2cc(-c3ccccc3)nc(SCC(=O)Nc3nccs3)c2C#N)cc(OC)c1OC |  | inconclusive [activator, partial curve]
O=[N+]([O-])c1ccc(Oc2cccc(F)c2)c2ccncc12 |  | inconclusive [activator, partial curve, poor fit]
CCN(CC)c1ccc(/C=N/NC(=O)c2nnn(-c3nonc3N)c2-c2ccc(C)cc2)cc1 | inactive: 0.49% | 
CCCCCn1c(Sc2ccccc2)nc2c1c(=O)[nH]c(=O)n2C | inactive: 4.43% | 

Compound | activity, positive = re-replication | Potency
Cc1ccc(C)c(Nc2cc(C)nc3ncnn23)c1 |  | inconclusive [activator, partial curve, poor fit]
CC(=O)Nc1cc(N=Cc2ccc(O)cc2O)c(Cl)cc1Cl |  | active: 20.6 µM
O=C(NC1CC1)c1ccc2c(Cl)c3c(nc2c1)CCCC3 |  | inconclusive [activator, single point]
CC(c1ccccc1)C1CC(=O)N(c2cc(Cl)ccn2)C1=O (centres undefined) |  | inconclusive [activator, single point]
CC(Oc1ccc(Cl)cc1Cl)c1nc(-c2ccc(NC(=O)c3ccco3)cc2)no1 (centres undefined) | inactive: 24.9% | 
Cc1cc(NC(=O)c2sccc2C)n(-c2nc3ccccc3[nH]2)n1 |  | inconclusive [activator, single point]
Cc1ccc(C(=O)Nc2ccc(N3CCN(C(=O)c4ccco4)CC3)cc2)c(Cl)c1 | inactive: 24.3% | 
C#CCOc1ccc2ccccc2c1/C=C(/C#N)c1ccc(C(=O)O)cc1 |  | inconclusive [activator, single point]
CCN1CCN=C1Nc1ccccc1 | inactive: 23% | 
O=C(NNC(=O)c1ccccc1O)c1ccc(-c2ccc([N+](=O)[O-])cc2)o1 |  | inconclusive [activator, single point]
Cc1ccc(CNC(=O)Cc2ccc(Br)cc2)cc1 |  | active: 6.51 µM
CC(C)Oc1cccc(-c2cc(C(=O)N3CCN(S(C)(=O)=O)CC3)c3ccccc3n2)c1 |  | inconclusive [activator, single point]
O=C(CCn1c(=S)[nH]c2ccccc2c1=O)NCCSCc1ccccc1 |  | inconclusive [activator, partial curve, poor fit]
O=C(NNC(=S)Nc1ccc(Cl)cc1Cl)c1ccncc1 | inactive: -2.61% | 
COc1cc(OC)cc(-c2c(C#Cc3ccsc3)c3cc(-c4ccc(OC)nc4)ccc3n2C)c1 |  | inconclusive [activator, single point]
Cc1ccc(C(=O)c2ccccc2C(=O)OCC(=O)Nc2ccc(SC(F)F)cc2)cc1 |  | inconclusive [activator, partial curve, poor fit]
Cc1ccsc1C(=O)NNC(=O)COc1ccccc1Cl | inactive: -1.33% | 
Cc1ccccc1C=Nc1ccccc1C(N)=O |  | active: 3.26 µM
CC(=O)c1c(C)[nH]c(C(=O)CSc2nnc(-c3ccccc3)n2Cc2ccc3c(c2)OCO3)c1C |  | inconclusive [activator, partial curve, poor fit]
COc1ccc(/C=N/NS(=O)(=O)c2ccccc2)cc1OS(=O)(=O)c1ccc(C)cc1 |  | inconclusive [activator, single point]
O=C(OCC(=O)N1CCCC1)c1cc(Cl)ccc1Cl |  | inconclusive [activator, partial curve, poor fit]
N=c1c2c(-c3ccccc3)c(-c3ccccc3)oc2ncn1CCN1CCOCC1 | inactive: 13.2% | 
Fc1ccc(-c2cc(-c3ccccc3)nc(-n3cccn3)n2)cc1 |  | active: 18.4 µM
